Some of the results follow.

For one assay, the system named is HSkMC. As to the kind of experiment: cytotoxicity call (relative viability < 0.9). To be noted: 10 µM.
A further assay deals with HepG2. As to the kind of experiment: cytotoxicity call (relative viability < 0.9). To be noted: 10 µM.
For another assay, the system named is S. aureus RN4220. In words: growth inhibition call (relative growth <= 0.2). To be noted: 50 µM.

On to `CS(=O)(=O)NCc1cnc2n1CCN(C[C@H]1CCOC1)CC2`, for which the cytotoxicity call in the assay on HSkMC and in the assay with HepG2 was “inactive” each time. Besides, in the assay with S. aureus RN4220, the growth inhibition call was “inactive”.
As for `O=C(CCCCCNC(=O)OCc1ccc(CO[C@@H]2C[C@H](c3ccccc3)C=C(C(=O)N3CCN(Cc4ccccc4)CC3)O2)cc1)NO`, the cytotoxicity call in the assay with HSkMC and in the assay on HepG2 was “inactive” in each case. Moreover, the growth inhibition call in the assay on S. aureus RN4220 was “inactive”.
Take `COc1ccc(NC(=O)Nc2ccc3c(c2)C(=O)N([C@H](C)CO)C[C@H](C)[C@@H](CN(C)C(=O)Nc2ccc(OC)cc2)OCCCC[C@H](C)O3)cc1`: the cytotoxicity call with HSkMC and in the assay on HepG2 was “inactive” throughout. Further, the growth inhibition call in the assay with S. aureus RN4220 was “inactive”.
As for `COc1ccc(S(=O)(=O)N(C)C[C@@H]2Oc3c(NS(=O)(=O)c4ccc(C)cc4)cccc3C(=O)N([C@H](C)CO)C[C@H]2C)cc1`, the cytotoxicity call with HSkMC and in the assay on HepG2 was “inactive” throughout. For the same compound, the growth inhibition call in the assay on S. aureus RN4220 was “inactive”.
With `COc1ccc(CN(C)C[C@H]2OCCCC[C@H](C)Oc3ccc(NC(=O)NC(C)C)cc3C(=O)N([C@@H](C)CO)C[C@@H]2C)cc1`, the cytotoxicity call in the assay on HSkMC and with HepG2 was “inactive” each time. The growth inhibition call in the assay with S. aureus RN4220 is “inactive”.
Regarding `I.[KH]`, the cytotoxicity call in the assay on HSkMC and in the assay with HepG2 was “inactive” throughout. In addition, the growth inhibition call in the assay with S. aureus RN4220 is “inactive”.
Turning to `COCCOC(=O)N1C(=O)[C@@]2(c3cc(C#CC4=CCCCC4)ccc31)[C@H](C(=O)N1CCc3cc(OC)c(OC)cc3C1)[C@H]1C(=O)O[C@H](c3ccccc3)[C@H](c3ccccc3)N1[C@@H]2c1ccc(O)cc1`, the cytotoxicity call with HSkMC and with HepG2 was “inactive” throughout. In addition, the growth inhibition call with S. aureus RN4220 was “inactive”.
As to `CC(=O)O[C@H]1C[C@@H]2CC[C@@H]3[C@H](CC[C@@]4(C)[C@H]3C[C@H]([N+]3(C)CCCCC3)[C@@H]4OC(C)=O)[C@@]2(C)C[C@@H]1N1CCCCC1`, the cytotoxicity call in the assay with HSkMC and in the assay on HepG2 was “inactive” each time. Besides, the growth inhibition call with S. aureus RN4220 was “inactive”.
`C[C@@H]1CCCCO[C@H](CN(C)CC2CC2)[C@@H](C)CN([C@H](C)CO)C(=O)c2cc(NC(=O)Cc3ccccc3)ccc2O1`: the cytotoxicity call with HSkMC and in the assay on HepG2 was “inactive” each time. Also, the growth inhibition call in the assay with S. aureus RN4220 was “inactive”.
On to `COC1=C(O)C(=O)c2c(cc3oc(C(C)=O)c(O)c3c2O)C1=O`, for which the cytotoxicity call in the assay with HSkMC and in the assay on HepG2 was “inactive” in each case. Also, in the assay with S. aureus RN4220, the growth inhibition call was “inactive”.
Take `C[C@@H]1CN([C@H](C)CO)C(=O)c2cc(NC(=O)CCCN(C)C)ccc2O[C@@H](C)CCCCO[C@@H]1CN(C)Cc1ccc(C(F)(F)F)cc1`: the cytotoxicity call with HSkMC and in the assay with HepG2 was “inactive” each time. In addition, the growth inhibition call in the assay on S. aureus RN4220 is “inactive”.
Regarding `CC1=C(C(=O)O)N2C(=O)[C@@H](NC(=O)[C@H](N)c3ccc(O)cc3)[C@H]2SC1`, the cytotoxicity call in the assay with HSkMC and in the assay with HepG2 was “inactive” throughout. Also, in the assay on S. aureus RN4220, the growth inhibition call was “active”.
Turning to `C[C@H]1CN([C@@H](C)CO)C(=O)c2cc(C#Cc3cccc(F)c3)cnc2O[C@H]1CN(C)Cc1ccccn1`, the cytotoxicity call in the assay on HSkMC and with HepG2 was “inactive” each time. In the assay on S. aureus RN4220, the growth inhibition call was “inactive”.
On to `C[C@@H]1CCCCO[C@@H](CN(C)Cc2ccc(Cl)c(Cl)c2)[C@H](C)CN([C@H](C)CO)C(=O)c2cc(NC(=O)NC3CCCCC3)ccc2O1`, for which the cytotoxicity call in the assay on HSkMC and with HepG2 was “inactive” throughout. In addition, the growth inhibition call with S. aureus RN4220 is “inactive”.
On to `COC(=O)[C@@H]1[C@@H](c2ccc(OC)cc2)[C@H](C(=O)OC)S(=O)(=O)CS1(=O)=O`, for which, in the assay on HSkMC, the cytotoxicity call was “inactive”. Moreover, the cytotoxicity call in the assay on HepG2 is “active”. In addition, in the assay on S. aureus RN4220, the growth inhibition call was “inactive”.
Regarding `C[C@@H]1CCCCO[C@@H](CN(C)C(=O)c2ccccc2)[C@H](C)CN([C@H](C)CO)C(=O)c2cc(NC(=O)C3CCCCC3)ccc2O1`, the cytotoxicity call in the assay on HSkMC and in the assay with HepG2 was “inactive” each time. Besides, the growth inhibition call in the assay on S. aureus RN4220 was “inactive”.
Take `C[C@@H]1CN([C@@H](C)CO)C(=O)Cc2cc(NS(C)(=O)=O)ccc2O[C@@H]1CN(C)S(=O)(=O)c1ccc(F)cc1`: the cytotoxicity call with HSkMC and in the assay on HepG2 was “inactive” each time. Further, the growth inhibition call in the assay on S. aureus RN4220 was “inactive”.
Take `Cc1noc(C)c1NC(=O)Nc1ccc2c(c1)C(=O)N([C@H](C)CO)C[C@@H](C)[C@@H](CN(C)Cc1ccc(C(F)(F)F)cc1)OCCCC[C@H](C)O2`: the cytotoxicity call with HSkMC and with HepG2 was “inactive” throughout. Further, in the assay with S. aureus RN4220, the growth inhibition call was “inactive”.
With `COCC#Cc1ccc2c(c1)O[C@H](CN(C)S(=O)(=O)c1cccc(OC)c1)[C@H](C)CN([C@@H](C)CO)S2(=O)=O`, the cytotoxicity call in the assay with HSkMC and in the assay with HepG2 was “inactive” throughout. The growth inhibition call in the assay with S. aureus RN4220 was “inactive”.
For the compound `CCCNC(=O)N(C)C[C@H]1Oc2cc(-c3ccc(C)cc3)ccc2S(=O)(=O)N([C@H](C)CO)C[C@@H]1C`, the cytotoxicity call with HSkMC and in the assay on HepG2 was “inactive” in each case. Also, the growth inhibition call in the assay with S. aureus RN4220 is “inactive”.
As to `C[C@H](CO)N1C[C@H](C)[C@H](CN(C)Cc2ccc(C(=O)O)cc2)Oc2ccc(NC(=O)CCCN(C)C)cc2C1=O`, the cytotoxicity call with HSkMC and with HepG2 was “inactive” in each case. The growth inhibition call with S. aureus RN4220 is “inactive”.
With `Cc1noc(C)c1S(=O)(=O)Nc1ccc2c(c1)CC(=O)N([C@@H](C)CO)C[C@H](C)[C@@H](CN(C)C(=O)Nc1ccc3c(c1)OCO3)O2`, the cytotoxicity call in the assay with HSkMC and with HepG2 was “inactive” each time. The growth inhibition call in the assay with S. aureus RN4220 was “inactive”.
Turning to `Cc1ccc(-c2cnc3c(c2)C(=O)N([C@@H](C)CO)C[C@H](C)[C@H](CN(C)C(=O)Cc2cccnc2)O3)cc1`, the cytotoxicity call with HSkMC and with HepG2 was “inactive” throughout. For the same compound, the growth inhibition call in the assay with S. aureus RN4220 is “inactive”.
Turning to `CC(=O)Oc1ccn(C)c(=O)c1C#N`, the cytotoxicity call in the assay on HSkMC (human skeletal muscle cells) and with HepG2 was “inactive” throughout. In addition, the growth inhibition call in the assay with S. aureus RN4220 is “inactive”.
In the case of `O=C(CN1CCOC1=O)N1CCC2(CCC(=O)N(CCCn3ccnc3)C2)CC1`, the cytotoxicity call in the assay with HSkMC and in the assay with HepG2 was “inactive” in each case. In addition, the growth inhibition call in the assay with S. aureus RN4220 is “inactive”.

The record behind these values is the antibiotic and cytotoxicity screens of Wong et al. (2023).
